These results are taken from US20240124575A1 (SIMCERE ZAIMING PHARMACEUTICAL, published 2024).

Assay [1] deals with T1, monkey CD33 on HEK293T-monkey CD33 cells (monkey).
T1 construct: whole, on cells
As to the kind of experiment: FACS on HEK293T-monkey CD33 cells.

For assay [2], the target named is T2, murine CD33 protein (murine, UniProt Q63994 18-240, limits assumed).
T2 construct: The printed catalogue numbers for murine and monkey CD33 may be interchanged; also called murine CD33-His protein
T2 sequence (looked up): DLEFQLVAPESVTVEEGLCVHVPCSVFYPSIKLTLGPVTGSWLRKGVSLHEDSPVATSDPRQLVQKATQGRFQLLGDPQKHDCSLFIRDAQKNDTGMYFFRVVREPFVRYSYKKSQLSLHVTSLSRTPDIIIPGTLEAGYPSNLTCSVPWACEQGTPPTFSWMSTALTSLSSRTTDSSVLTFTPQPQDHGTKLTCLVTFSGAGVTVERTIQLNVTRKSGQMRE
The experiment in a line: ELISA, coated murine CD33, antibody 1 nM.

Assay [3] has as its target T3, monkey CD33 protein (monkey).
T3 construct: The printed catalogue numbers for murine and monkey CD33 may be interchanged; also called monkey CD33-His protein
The experiment in a line: ELISA, coated monkey CD33, antibody 1 nM.

The target in assay [4] is T2, murine CD33 protein. The experiment in a line: ELISA, coated murine CD33, antibody 10 nM.
Assay [5] addresses T3, monkey CD33 protein. The experiment in a line: ELISA, coated monkey CD33, antibody 10 nM.
Assay [6] has as its target T2, murine CD33 protein. The experiment in a line: ELISA, coated murine CD33, antibody 0.1 nM.
The target in assay [7] is T2, murine CD33 protein. The experiment in a line: ELISA, coated murine CD33, antibody 100 nM.
The target of assay [8] is T3, monkey CD33 protein. As to the kind of experiment: ELISA, coated monkey CD33, antibody 0.1 nM.
The target of assay [9] is T3, monkey CD33 protein. As to the kind of experiment: ELISA, coated monkey CD33, antibody 100 nM.
Assay [10] concerns the target T2, murine CD33 protein. The experiment in a line: ELISA, coated murine CD33, antibody 0.01 nM.
Assay [11] has as its target T3, monkey CD33 protein. As to the kind of experiment: ELISA, coated monkey CD33, antibody 0.01 nM.
Assay [12] concerns the target T2, murine CD33 protein. The experiment in a line: ELISA, coated murine CD33, antibody 0.001 nM.
The target of assay [13] is T3, monkey CD33 protein. The experiment in a line: ELISA, coated monkey CD33, antibody 0.001 nM.
The target of assay [14] is T2, murine CD33 protein. As to the kind of experiment: ELISA, coated murine CD33, antibody 0.0001 nM.
For assay [15], the target named is T3, monkey CD33 protein. As to the kind of experiment: ELISA, coated monkey CD33, antibody 0.0001 nM.
Assay [16] concerns the target T3, monkey CD33 protein. The experiment in a line: SPR (Biacore), antibody captured on Protein A chip, monkey CD33 protein as analyte.
The next assay has as its target T4, human CD33-His (human, UniProt P20138 18-259).
T4 construct: range 18-259; Bought protein; also called human CD33-his protein; hCD33-his; not shown: His tag
The experiment in a line: SPR (Biacore), antibody captured on Protein A chip, human CD33-his as analyte.

human CD33-His, sequence (P20138 18-259 limits assumed): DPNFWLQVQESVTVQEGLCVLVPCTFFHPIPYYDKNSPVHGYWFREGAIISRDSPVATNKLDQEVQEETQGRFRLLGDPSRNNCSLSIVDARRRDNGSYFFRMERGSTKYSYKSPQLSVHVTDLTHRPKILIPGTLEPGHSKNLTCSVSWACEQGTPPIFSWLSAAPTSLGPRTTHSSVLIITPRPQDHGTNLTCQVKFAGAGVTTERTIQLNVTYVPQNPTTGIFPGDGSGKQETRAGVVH

B1: S006-NB146-150 (Fc fusion)
chain: QLQLVESGGGLVQAGGSLRLSCAASGNSLGVYNLGWYRQAPGEQRELVATINSRGDTNYVNSVAGRFTISRVNARNTENTVYLQMNRLQPEDTAVYYCIAQRGWGREYDIWGPGTQVTVSS[letters of human IgG1 Fc with changes left out]
notes: also called S006-NB146-150 VHH-Fc
As for B1, a half-maximal effect in assay [1] (EC50) was put at 45.1 nM. Further, the “Max MFI” value in assay [1] was 3310 MFI. For the same molecule, the OD450 with murine CD33 protein [2] came to 0.07 OD450; with monkey CD33 protein [3], 2.41 OD450; in the assay with murine CD33 protein [4] it was 0.08 OD450; in the assay with monkey CD33 protein [5] it was 2.44 OD450; in the assay with murine CD33 protein [6], 0.06 OD450; with murine CD33 protein [7] it was 0.17 OD450. Further, the OD450 with monkey CD33 protein [8] was determined as 1.5 OD450; in the assay with monkey CD33 protein [9], 2.37 OD450; with murine CD33 protein [10] it was 0.06 OD450; with monkey CD33 protein [11], 0.57 OD450; with murine CD33 protein [12], 0.06 OD450; with monkey CD33 protein [13], 0.1 OD450. Moreover, the OD450 in the assay with murine CD33 protein [14] was found to be 0.06 OD450; with monkey CD33 protein [15], 0.05 OD450. Binding with monkey CD33 protein [16] was characterised by a dissociation constant (Kd) of 41.6 nM. Also, the koff with monkey CD33 protein [16] was found to be 0.0064 s⁻¹. Further, the kon in the assay with monkey CD33 protein [16] was determined as 154000 M⁻¹ s⁻¹.

B2: S006-NB146-16 (Fc fusion)
chain: EVQLVESGGGLVPAGGSLRLSCAASGSIANIQVMGWYRQAPGSQRALVAQITVTGDRATNYADSVKGRFTISRDNAKNAVYLSINPLKSEDTGVYYCNARSYYGQHNYWGQGTQVTVSS[letters of human IgG1 Fc with changes left out]
notes: also called S006-NB146-16 VHH-Fc
Regarding B2, in assay [1], the EC50 is 121 nM. Moreover, the “Max MFI” value in [1] is 2800 MFI. Moreover, the OD450 with murine CD33 protein [2] amounted to 0.05 OD450; with monkey CD33 protein [3], 2.26 OD450; with murine CD33 protein [4] it was 0.06 OD450; with monkey CD33 protein [5], 2.42 OD450; with murine CD33 protein [6] it was 0.05 OD450; in the assay with murine CD33 protein [7], 0.07 OD450. For the same molecule, the OD450 in the assay with monkey CD33 protein [8] came to 1.53 OD450; with monkey CD33 protein [9], 2.34 OD450; with murine CD33 protein [10], 0.06 OD450; in the assay with monkey CD33 protein [11], 0.67 OD450; with murine CD33 protein [12], 0.1 OD450; with monkey CD33 protein [13], 0.13 OD450. The OD450 with murine CD33 protein [14] and with monkey CD33 protein [15] was 0.06 OD450 throughout. This molecule gave a Kd with monkey CD33 protein [16] of 110 nM. This molecule also displayed a koff with monkey CD33 protein [16] of 0.0154 s⁻¹. The kon with monkey CD33 protein [16] stood at 140000 M⁻¹ s⁻¹.

B3: S006-NB147-25 (Fc fusion)
chain: QLQLVESGGGLVQAGGSLRLSCKASGVTFSINALGWYRQAPGKQREMVAVISSGGSTNYVDSVKGRFTISRDNAKNTVYLQMNSLKPEDTAVYYCNADVVGSSWSPEYDYWGQGTQVTVST[letters of human IgG1 Fc with changes left out]
notes: also called S006-NB147-25 VHH-Fc
As to B3, a half-maximal effect in assay [1] (EC50) was put at 31.2 nM. Further, in [1], the “Max MFI” value worked out at 4890 MFI. In addition, the OD450 turned out to be 0.05 OD450 in the assay with murine CD33 protein [2]; 2.44 OD450 in the assay with monkey CD33 protein [3]; 0.06 OD450 with murine CD33 protein [4]; 2.64 OD450 with monkey CD33 protein [5]; 0.05 OD450 in the assay with murine CD33 protein [6]; 0.07 OD450 with murine CD33 protein [7]. The OD450 with monkey CD33 protein [8] is 1.39 OD450; with monkey CD33 protein [9] it was 2.58 OD450; with murine CD33 protein [10], 0.05 OD450; in the assay with monkey CD33 protein [11], 0.47 OD450; in the assay with murine CD33 protein [12], 0.06 OD450; with monkey CD33 protein [13], 0.1 OD450. Moreover, the OD450 in the assay with murine CD33 protein [14] and with monkey CD33 protein [15] was 0.06 OD450 throughout. In addition, the results for the Kd with human CD33-His and with monkey CD33 protein [16] were 1.12 nM and 5.76 nM, respectively. Moreover, the koff was 0.000158 s⁻¹ with human CD33-His and 0.00234 s⁻¹ with monkey CD33 protein [16]. Further, the figures for the kon in the assay with human CD33-His and with monkey CD33 protein [16] were 141000 M⁻¹ s⁻¹ and 406000 M⁻¹ s⁻¹, respectively.

B4: S006-NB146-69 (Fc fusion)
chain: EVQVVESGGGLVQAGGSLSLSCAASGSIFTINIMGWYRQAPGKQRELVAQINRVGDTNYPNSMAERFTISRDNAKNTMYLQMNTLKPEDTAVYYCNADIVESGRYSGKDYWGKGTLVTVSL[letters of human IgG1 Fc with changes left out]
notes: also called S006-NB146-69 VHH-Fc
B4 returned an EC50 in assay [1] of 66.1 nM. In addition, the “Max MFI” value in [1] is 3460 MFI. Further, the OD450 with murine CD33 protein [2] came to 0.35 OD450; with monkey CD33 protein [3], 2.21 OD450; in the assay with murine CD33 protein [4], 1.29 OD450; in the assay with monkey CD33 protein [5], 2.45 OD450; with murine CD33 protein [6] it was 0.1 OD450; with murine CD33 protein [7] it was 1.9 OD450. Also, the OD450 with monkey CD33 protein [8] was 1.18 OD450; with monkey CD33 protein [9], 2.33 OD450; in the assay with murine CD33 protein [10], 0.07 OD450; with monkey CD33 protein [11] it was 0.41 OD450; in the assay with murine CD33 protein [12], 0.06 OD450; with monkey CD33 protein [13], 0.09 OD450. Moreover, the OD450 with murine CD33 protein [14] stood at 0.06 OD450; in the assay with monkey CD33 protein [15], 0.05 OD450. Moreover, the results for the Kd in the assay with human CD33-His and in the assay with monkey CD33 protein [16] were 48.6 nM and 7.15 nM, respectively. Moreover, the values for the koff with human CD33-His and with monkey CD33 protein [16] were 0.00326 s⁻¹ and 0.00119 s⁻¹, respectively. Besides, the kon in the assay with human CD33-His came out at 67100 M⁻¹ s⁻¹; with monkey CD33 protein [16] it was 167000 M⁻¹ s⁻¹.

B5: S006-NB146-139 (Fc fusion)
chain: QLQLVESGGGLVQPGGSLRLSCAAPGIILDYYPIGWFRQAPGKEREGVSYITSSDDSTVYTYYTDSVKGRFTISRGKNTVYLQMNSLKPEDTAVYYCAARSTYIVGRNYHTLNSSDFDYWGQGTQVTVSS[letters of human IgG1 Fc with changes left out]
In [1], B5 gave a concentration giving a half-maximal response (EC50) of 25 nM. For the same molecule, the “Max MFI” value in [1] came out at 3950 MFI. In addition, the OD450 with murine CD33 protein [2] stood at 0.09 OD450; with monkey CD33 protein [3], 2.27 OD450; in the assay with murine CD33 protein [4], 0.06 OD450; with monkey CD33 protein [5] it was 2.52 OD450; with murine CD33 protein [6] it was 0.06 OD450; in the assay with murine CD33 protein [7], 0.07 OD450. Moreover, the OD450 with monkey CD33 protein [8] is 1.39 OD450; with monkey CD33 protein [9], 2.46 OD450; with murine CD33 protein [10] it was 0.06 OD450; with monkey CD33 protein [11] it was 0.45 OD450; in the assay with murine CD33 protein [12], 0.06 OD450; with monkey CD33 protein [13] it was 0.09 OD450. For the same molecule, the OD450 with murine CD33 protein [14] came to 0.06 OD450; in the assay with monkey CD33 protein [15], 0.05 OD450. In addition, the Kd with human CD33-His worked out at 13.5 nM; in the assay with monkey CD33 protein [16], 30.1 nM. For the same molecule, the koff turned out to be 0.00401 s⁻¹ with human CD33-His and 0.0278 s⁻¹ with monkey CD33 protein [16]. The figures for the kon with human CD33-His and with monkey CD33 protein [16] were 297000 M⁻¹ s⁻¹ and 925000 M⁻¹ s⁻¹, respectively.

B6: S006-NB147-220 (Fc fusion)
chain: QLQLVESGGGMVQPGGSLRLSCAASGFTLDYYAIGWFRQAPGKEREGVSCINSGDSSTYYADSVKGRFTISRDNAENTVYLQMNSLKPEDTAVYYCATVDTLIVAGNLEECRYDMDYWGKGTLVTVSS[letters of human IgG1 Fc with changes left out]
notes: also called S006-NB147-220 VHH-Fc
In turn, B6 registered an EC50 in assay [1] of 10.2 nM. Moreover, in [1], the “Max MFI” value was 6190 MFI. The OD450 in the assay with murine CD33 protein [2] came out at 0.06 OD450; in the assay with monkey CD33 protein [3] it was 2.23 OD450; in the assay with murine CD33 protein [4], 0.06 OD450; with monkey CD33 protein [5] it was 2.46 OD450; in the assay with murine CD33 protein [6] it was 0.06 OD450; with murine CD33 protein [7], 0.07 OD450. The OD450 is 1.19 OD450 in the assay with monkey CD33 protein [8]; 2.47 OD450 with monkey CD33 protein [9]; 0.06 OD450 with murine CD33 protein [10]; 0.34 OD450 in the assay with monkey CD33 protein [11]; 0.06 OD450 in the assay with murine CD33 protein [12]; 0.08 OD450 with monkey CD33 protein [13]. The OD450 with murine CD33 protein [14] came out at 0.06 OD450; with monkey CD33 protein [15] it was 0.05 OD450. Further, the figures for the Kd with human CD33-His and in the assay with monkey CD33 protein [16] were 2.75 nM and 2.43 nM, respectively. The koff with human CD33-His is 0.000497 s⁻¹; in the assay with monkey CD33 protein [16] it was 0.00148 s⁻¹. The kon stood at 181000 M⁻¹ s⁻¹ with human CD33-His and 608000 M⁻¹ s⁻¹ with monkey CD33 protein [16].
